The campaign covered roughly 310,000 compounds. About 2,200 (0.71%) showed an effect of 50% or more. Effects have a minus sign here. The list shows a part of the results.
Target: human ether-à-go-go-related gene (hERG) potassium channel (human, UniProt Q12809)
Assay: primary screen, population patch clamp on CHO cells stably expressing hERG

human ether-à-go-go-related gene (hERG) potassium channel, sequence (Q12809 whole entry, looked up): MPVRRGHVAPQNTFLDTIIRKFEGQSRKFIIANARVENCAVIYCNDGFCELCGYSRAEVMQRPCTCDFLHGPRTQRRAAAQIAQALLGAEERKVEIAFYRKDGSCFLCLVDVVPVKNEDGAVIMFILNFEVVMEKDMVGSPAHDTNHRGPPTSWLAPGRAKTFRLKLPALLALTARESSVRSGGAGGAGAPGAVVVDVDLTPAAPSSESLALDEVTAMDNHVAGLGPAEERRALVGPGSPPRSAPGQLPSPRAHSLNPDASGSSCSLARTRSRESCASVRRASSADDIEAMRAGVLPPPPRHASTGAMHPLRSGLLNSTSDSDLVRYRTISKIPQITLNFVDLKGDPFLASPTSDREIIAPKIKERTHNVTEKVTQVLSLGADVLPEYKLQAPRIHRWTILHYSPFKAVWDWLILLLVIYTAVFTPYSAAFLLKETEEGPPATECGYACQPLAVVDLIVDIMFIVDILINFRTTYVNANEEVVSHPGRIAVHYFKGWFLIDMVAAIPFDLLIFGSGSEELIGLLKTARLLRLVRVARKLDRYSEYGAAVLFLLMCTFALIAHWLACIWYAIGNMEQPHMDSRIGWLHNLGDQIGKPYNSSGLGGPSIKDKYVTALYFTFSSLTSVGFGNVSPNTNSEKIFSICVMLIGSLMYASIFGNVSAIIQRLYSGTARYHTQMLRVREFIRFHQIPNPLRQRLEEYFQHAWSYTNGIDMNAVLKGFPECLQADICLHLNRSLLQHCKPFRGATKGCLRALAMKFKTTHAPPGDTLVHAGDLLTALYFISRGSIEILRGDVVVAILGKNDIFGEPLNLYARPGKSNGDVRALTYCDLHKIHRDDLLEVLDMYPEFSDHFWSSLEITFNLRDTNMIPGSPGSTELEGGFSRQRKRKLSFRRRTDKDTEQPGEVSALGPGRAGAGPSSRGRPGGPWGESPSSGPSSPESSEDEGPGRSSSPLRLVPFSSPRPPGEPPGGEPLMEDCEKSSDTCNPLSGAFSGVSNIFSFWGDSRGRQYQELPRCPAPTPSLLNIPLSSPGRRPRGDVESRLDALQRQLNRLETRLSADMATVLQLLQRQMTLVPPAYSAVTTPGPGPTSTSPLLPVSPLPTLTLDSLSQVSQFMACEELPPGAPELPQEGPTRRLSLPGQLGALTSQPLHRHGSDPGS

Row | SMILES | hERG current change (%, negative = inhibition) at 1uM [%]
1 | Cc1nn(-c2ccccc2)c(C)c1/C=N/NC(=O)c1ccc(F)cc1 | 15.1
2 | Cc1ccccc1Cn1cc(NC(=O)c2cc3nc(-c4ccco4)cc(C(F)(F)F)n3n2)cn1 | 8.28
3 | CCCCN(CC)CCCNC(=O)c1ccc(CS(=O)(=O)c2c(Cl)cccc2Cl)o1 | -8.53
4 | C#CCN(C)Cc1ccccc1.Cl | 11.8
5 | N=c1c(C(=O)NC2CCCC2)cc2c(=O)n3ccccc3nc2n1C1CCCCC1 | -86.9
6 | CCNC(=S)N(Cc1cc2cc(C)cc(C)c2[nH]c1=O)C1CCCC1 | 0.619
7 | CNc1cc(C)nc(N2CCOCC2)n1 | 17
8 | CCn1ccc(C(=O)Nc2ccc(N(C)C(C)=O)cc2)n1 | 17.1
9 | Nc1cc(Cl)c2nonc2c1[N+](=O)[O-] | -1.92
10 | O=C(NCc1ccccc1Cl)C1=CC=CN2CCS(=O)(=O)N=C12 | 7.43
11 | CCc1ccc2oc(=O)cc(CN3CCC(C)CC3)c2c1 | 8.5
12 | CC1(C)Cc2c(sc(NC(=O)COc3ccc(Cl)cc3)c2C(N)=O)C(C)(C)N1 | 8.12
13 | CCOC(=O)N/N=C(\CCC(=O)O)c1cccs1 | 13.1
14 | CCc1nnc(NC(=O)CSc2nnc(CNc3ccc(OC)cc3)n2C)s1 | 9.07
15 | CCC(=O)NC1(C(F)(F)F)C(=O)NC(C)=C1C#N (stereo not shown) | 3.51
16 | COC(=O)c1c(NC(=O)/C=C/c2ccc3c(c2)OCO3)sc(C)c1C | 1.97
17 | COc1cc(/C=C2/C(=N)N3C=CSC3=NC2=O)ccc1OCCCOc1c(C)cccc1C | 11
18 | CC(=O)c1c(C)[nH]c(C(=O)OCC(=O)Nc2cc(S(=O)(=O)N3CCCCC3)ccc2C)c1C | 10.8
19 | CC(=O)c1c(Cl)nc2cccc3c2c1-c1ccccc1C3=O | 11
20 | Cc1cc(-c2ccc(C(C)C)c(S(=O)(=O)N3CC(=O)Nc4ccccc43)c2)on1 | 15.5
21 | Cc1cc(N2CCN(S(=O)(=O)Cc3ccccc3)CC2)n2ncnc2n1 | -11.4
22 | CCN(CC)CCCN=Cc1c(O)n(-c2c(C)cccc2C)c(=O)c2ccccc12 | -3.37
23 | CCC(C)[C@H](NC(=O)N1CC(=O)Nc2ccccc21)C(=O)N[C@H](C(=O)O)c1ccccc1 (stereo partly shown) | 10.1
24 | Cc1cccc(/C(N)=N/OC(=O)c2ccco2)c1 | -1.55
25 | N#CCCN(C(=O)CN1CCN(S(=O)(=O)c2ccc3c(c2)OCCO3)CC1)c1ccc(F)cc1 | 2.29
